Experimental data reported in the supplement of paper PMC11417369.
The list shows a part of the results.

Tested on: PfHDP1 homeodomain (GST-tagged)
Assay: gcPBM binding intensity (ln(normalized median fluorescence intensity)); higher = stronger DNA binding
In short: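 After 1 h on an Agilent 4 × 180k array of primer-extended double-stranded 36-bp intergenic genomic probes and negative controls, bound GST-tagged P. falciparum DNA-binding domains were detected with Alexa488 anti-GST antibody and scanned at 488 nm. The domains had been expressed in E. coli, and binding took place in 1× PBS with 1% milk, 0.2 mg/ml BSA, 0.5% salmon testes DNA and 0.03% Triton X-100. Binding intensity is the highest Masliner-normalised natural-log median intensity across replicate spots of either probe orientation.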

Row | Sequence | gcPBM binding intensity (ln)
1 | TATTTTTATATATAATCACACATTGGAATGTTCTAA [CACACA_site5540] | 6.53
2 | ATAAATGATAGTAAAAGTACACAAAATGTTTTAAAA [XGTACX_site1623] | 6.33
3 | TTCTTTATGGAAGTGTAAAAAAAGAAATACTTTTTT [CACACA_negctrl_site915] | 6.03
4 | GCACGAAACAATGTATATATATATATATATATATAT [GTGCAC_negctrl_site412] | 9.54
5 | AATAAATAGAGGAAATGTACATATAAAAATAATTTC [XGTACX_site2454] | 6.59
6 | GATTATCTTCAAGTATGTACACACTATATATAATAA [XGTACX_site5108] | 6.64
7 | TTAACATCTTCGTTGACACACAAAAAAAAAAATAAT [CACACA_site1819] | 6.3
8 | ATTACATGTATACATGTCAACACGTATAAAAAAAAA [CACACA_negctrl_site1154] | 6.66
9 | ATTATAAATATATTTTGTACTTAAAAGGAAAAAAAA [XGTACX_site55] | 6.21
10 | TACACAAACAGACACACACACACACGCGCACAAAAA [CACACA_site7192] | 7.75
11 | AATAAGCATAGACACACACACAAAAAAAAAAAAAAA [CACACA_site6476] | 6.46
12 | TTATTTCTTCAGAAAAAATTAAAAAATTAAACAATA [CACACA_negctrl_site169] | 6.12
13 | ATTTTTTTTTTTTTTTTTTTTTTTTTTTTTTTATGC [CACACA_negctrl_site1018] | 6.02
14 | TTTTTTTTTTTTGTAGTGCAAATTAAAAATATATGT | 9
15 | ATTTTTTTTAAACGAAGTACAATTTGTGCATTGGAA [XGTACX_site8109] | 10.4
16 | TATATATATATATATGTATGCATGTCCTTTTTTATT [TGCATGCA_site344] | 9.46
17 | TGTTTATCATATTTGTGTCCTCATTTTTTAGTATCA [XGTACX_site947] | 6.62
18 | TAATATTTTATTTTTGTTGTGGATCCAAAAAAAAAA [CACACA_negctrl_site846] | 6.13
19 | CTATATATTTAAAAAAGTACAAATATAAAAATATAT [XGTACX_site676] | 6.65
20 | TGTTTACACTTTTTTTGTACACATAATTTTATTTGA [XGTACX_site3760] | 6.98
21 | AAAAAAAAAAAAAACACACACATATAACATATTTAA [CACACA_site6745] | 6.56
22 | TATTCTAGTCTGCTTACACACATATTTATATTTATA [CACACA_site7432] | 7.53

Row | Sequence | gcPBM binding intensity (ln)
23 | AAAAAAAAAAAAAATACACACAAACACAAATTAAAT [CACACA_site5982] | 6.76
24 | GTAATATTATAATATACACACATAGAATATATATAT [CACACA_site413] | 8.01
25 | AAGATCATATATTCGTGGGTATAAAAAGTTATAATA [TGCATGCA_negctrl_site439] | 6.28
26 | ACAAAAAAAAAGGAAACACACAAAAAAAAAAAATAA [CACACA_site3523] | 6.16
27 | ACTATATTTCTATAATGTACAAAAATAAATCATATG [XGTACX_site3337] | 6.22
28 | ACCTATAAAAAATAATGTACAGGAAGAAATATAAGG [XGTACX_site5822] | 6.99
29 | TTTATTATCAAGATTGCACACCCTTATGAACTTTTT [CACACA_site3166] | 9.35
30 | TAATTTACACCTACGTGTACACACAAAAATATGTTT [XGTACX_site1868] | 7.19
31 | TGTATAAGGTTTTTACGTTTTGAAGGATGTATTGTT [CACACA_negctrl_site1245] | 6.41
32 | TAGGTCATATTTTTTGCACACAAAAAAAAATATAAA [CACACA_site3380] | 9.79
33 | CACCTCAATATTCACATACACACAATATCATCGAAG [CACACA_site1675] | 6.85
34 | TTTTTCCAATCAGATGCATGTTACTATATTTGGTTC [TGCATGCA_site52] | 6.66
35 | TATCATTTTGAAGTATGTACTTATTTTATTAAAATA [XGTACX_site7784] | 6.66
36 | TAAATACATAAATACACACACATATATATATATATA [CACACA_site5549] | 9.43
37 | ATTATATTAAAATATTCACACACTAACGTAAATCAT [CACACA_site8887] | 6.25
38 | GTAAGTATATATAATAGTACATATATATTAATATAT [XGTACX_site4314] | 6.43
39 | TACATAATTTTAATCACACACAAACAAACACATACA [CACACA_site194] | 7.27
40 | TTTTGTTCATACAAATTGGAACAAGACAAAAATATA [XGTACX_negctrl_site327] | 6.56
41 | AAGGAAAAAACAAATACACACAAAAACGCATTATAA [CACACA_site3466] | 6.84
42 | ATGAACTTATTTTAGTGTACTAAAAAATATGACTTC [XGTACX_site470] | 6.18
43 | GGGAGGATATTACACAGTACCCAGGAAATCTACGGA [XGTACX_site4874] | 6.69
44 | TATGTTCCGAAGGTTGTACACACATAGAAATATACA [CACACA_site9285] | 6.85
